# Values joined by “and” are separate entries in the source; they are usually repeats but may differ in a detail not shown here. Equal values may be shown once. Out of some 420,000 compounds screened, about 64,000 (15%) were called active. Inconclusive results, whose numbers are uncertain, are shown with a selection of clear calls. Calls follow the shape of the dose curve; as a rule, active = well fitted inhibition curve with a large enough effect; inconclusive = small, poorly fitted or top-dose-only effect; inactive = flat fitted curve, though single readings scatter. Potencies of inconclusive entries are doubtful fits and often do not repeat.
# Experiment: qHTS for Inhibitors of human tyrosyl-DNA phosphodiesterase 1 (TDP1): qHTS in cells in absence of CPT; also: nearly all actives have a fitted effect of over 55% in size
# Details: DT40 Tdp1-/- hTDP1 cells, no CPT, ATP luminescence, 48 h; activity change, negative = growth inhibition: at 46.2 µM (top of the series) unless noted
# Outline: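 Cells were dispensed at 400 per well, compounds added by pin tool, plates incubated ≥48 hr at 37 °C, then CellTiter-Glo added for 30 min at room temperature before luminescence reading. Line: DT40 Tdp1-/- complemented with hTDP1; camptothecin omitted.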
# % is scaled to controls: 0 for no effect and ±100 for the full control effect; potency is read from the fitted curve at half-maximal effect; tags tell the direction and shape of the fitted curve.
SMILES,Potency,"activity change, negative = growth inhibition"
CCC1COCCS(=O)(=O)N1Cc1cccc(C(F)(F)F)c1 (stereo not given),"inconclusive: 12.6 µM [inhibitor, single point] and inconclusive: 16.4 µM [inhibitor, single point]",–
CC(=O)Nc1cccc(-c2ccnc3c2CC(C)(C(=O)Nc2ccc4c(c2)OCO4)O3)c1 (stereo not given),active: 0.651 µM,–
Cc1ccc(C)c(C(=O)COc2ccc(C)nc2[N+](=O)[O-])c1,active: 14.6 µM,–
CC(C)CN1CCC2(CC1)CCN(C(=O)c1csnn1)CC2,"inconclusive: 29.1 µM [inhibitor, single point]",–
Oc1c(C(c2ccccn2)N2CCC(Cc3ccccc3)CC2)cc(Cl)c2cccnc12 (stereo not given),active: 2.91 µM,–
CCOC(=O)C1OC1(c1ccccc1)c1ccccc1 (stereo not given),"inconclusive: 20.6 µM [inhibitor, single point]",–
CCOC(=O)c1ccc(N/N=C/c2cc(Br)cc([N+](=O)[O-])c2O)cc1,"inconclusive: 16.4 µM [inhibitor, single point]",–
COc1ccc(NC(=O)CN(C)C(=O)CN2C(=O)NC3(CCCC3)C2=O)cc1,"inconclusive: 11.6 µM [inhibitor, partial curve]",–
Cc1ccc(C(=O)C(OC(=O)c2c(C)cc(=O)oc2C)c2ccccc2)cc1 (stereo not given),"inconclusive: 18.4 µM [inhibitor, partial curve]",–
CC(C)Cn1c(SCC(=O)N2CCCCC2)nc2ccccc2c1=O,active: 25.9 µM,–
O/N=C(\Cn1ccnc1)c1ccccc1,–,inactive: -11.1%
COc1ccc(N2C(=O)NC(NC(=O)C(C)(C)C)(C(F)(F)F)C2=O)cc1 (stereo not given),–,inactive: 1.06%
COc1ccc(C)cc1S(=O)(=O)N(C)CC(=O)N1CCCCC1,–,inconclusive: -40.5% [inhibitor]
O=C(Nc1nc2ccsc2c(=O)s1)C1CCC1,–,inconclusive: -36% [inhibitor]
CC1=C(C(=O)OC(C)C)C(c2ccccc2)NC(=O)N1C (stereo not given),"inconclusive: 29.1 µM [inhibitor, single point]",–
CCCCC1=C([O-])C2N=CC=CC2=[N+](c2ccccn2)C1=O (stereo not given),"inconclusive: 16.4 µM [inhibitor, single point]",–
O=c1c2ccccc2nnn1CSc1ncnc2ccccc12,"inconclusive: 20.6 µM [inhibitor, single point]",–
Cc1ccc2c(CC(=O)NCc3ccccc3)coc2c1C,active: 3.26 µM,–
Cn1ccnc1C(OC(=O)c1ccccc1)C(F)(F)F (stereo not given),"inconclusive: 11.6 µM [inhibitor, partial curve]",–
O=C(CNC(=O)c1cccc(F)c1)N/N=C/c1cccs1,–,inactive: -1.96%

# — PubChem BioAssay AID686978 (National Center for Advancing Translational Sciences (NCATS), 2013)
